# Whole data set: some 81,000 sequences, median “one-hybrid fitness for binding parS DNA” near -0.17, cut for the highest 2% near 0.51. Some of the results follow.
# B1: Caulobacter ParB omega fusion; a variant is named by its letters at X, in order, B8GW30 (parent)
# chain: MESVVVGEPGMSEGRRGLGRGLSALLGEVDAAPAQAPGEQLGGSREAPIEILQRNPDQPRRTFREEDLEDLSNSIREKGVLQPILVRPSPDTAGEYQIVAGERAWRAAQRAGLKTVPIMVRELDDLAVLEIGIIENVQRADLNVLEEALSYKVLMEKFERTQENIAQTIGKSXSHVANXMRLLXLPDEVQSYLVSGELTAXHARAIAAAADPVALAKQIIEGGLSVRETEALARKAPNLSAGKSKGGRPPRVKDTDTQALESDLSSVLGLDVSIDHRGSTGTLTITYATLEQLDDLCNRLTRGI
# Variants of: B1
# Assay: one-hybrid fitness for binding parS DNA (scaled: cognate 1, non-cognate 0); higher = stronger binding
# Settings: with parS DNA site
# Procedure, shortened: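 In E. coli USO, a HIS3 reporter with its site placed 19 bp from the promoter was used to select Caulobacter ParB variants randomised at four specificity codons. Growth lasted 48 hours at 37°C on histidine-free M9 containing 0.1 mM IPTG and 5 mM 3-AT. Fitness was taken as the log change in variant-to-wild-type read ratio from Illumina sequencing of pre- and post-selection plasmids, rescaled between the non-cognate and cognate sites.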
row,Variant,one-hybrid fitness for binding parS DNA
1,VNEF,≤ 0.2
2,VDVD,≤ 0.2
3,LQVS,≤ 0.2
4,LMVG,≤ 0.2
5,VLMH,≤ 0.2
6,YMGG,≤ 0.2
7,AMTT,≤ 0.2
8,GTTF,≤ 0.2
9,TTAA,≤ 0.2
10,SRRE,≤ 0.2
11,QSIW,≤ 0.2
12,QTAY,≤ 0.2
13,KSVC,≤ 0.2
14,RFHG,0.974
15,MFAR,≤ 0.2
16,LFNR,≤ 0.2
17,RYEY,0.434
18,FMNS,≤ 0.2
19,VLKL,≤ 0.2
20,YWLA,≤ 0.2
21,QQTG,≤ 0.2
22,FLSM,≤ 0.2
23,KNAE,≤ 0.2
24,RFHI,≤ 0.2
25,PDHV,≤ 0.2

row,Variant,one-hybrid fitness for binding parS DNA
1,KDWS,≤ 0.2
2,NSSV,≤ 0.2
3,QKMI,≤ 0.2
4,DTTI,≤ 0.2
5,NKSD,≤ 0.2
6,QTMA,≤ 0.2
7,DHPS,≤ 0.2
8,QFYN,≤ 0.2
9,SFPG,≤ 0.2
10,GHNT,≤ 0.2
11,HATL,≤ 0.2
12,VRFT,≤ 0.2
13,RAPR,≤ 0.2
14,LHNS,≤ 0.2
15,CQQG,≤ 0.2
16,FTPD,≤ 0.2
17,DSHP,≤ 0.2
18,TRIC,≤ 0.2
19,ATID,≤ 0.2
20,RLCV,≤ 0.2
21,RMAP,0.205
22,RMAS,0.991
23,DAVR,≤ 0.2
24,HITT,≤ 0.2
25,MDAY,≤ 0.2

row,Variant,one-hybrid fitness for binding parS DNA
1,TQVR,≤ 0.2
2,DFQA,≤ 0.2
3,NNGC,≤ 0.2
4,GHVS,≤ 0.2
5,SWNT,≤ 0.2
6,ENIG,≤ 0.2
7,WAFG,≤ 0.2
8,CLEI,≤ 0.2
9,PPYY,≤ 0.2
10,PTTY,≤ 0.2
11,KRYL,≤ 0.2
12,PSEC,≤ 0.2
13,QYYC,≤ 0.2
14,KNKS,≤ 0.2
15,SLHG,≤ 0.2
16,HRDS,0.213
17,RSQE,≤ 0.2
18,KSNC,≤ 0.2
19,DCRY,≤ 0.2
20,KVNG,≤ 0.2
21,SPRH,≤ 0.2
22,TLMD,≤ 0.2
23,SRIK,≤ 0.2
24,CHDC,≤ 0.2
25,HPTP,≤ 0.2

row,Variant,one-hybrid fitness for binding parS DNA
1,RLVE,≤ 0.2
2,CAKS,≤ 0.2
3,HAKD,≤ 0.2
4,THTE,≤ 0.2
5,ICYG,≤ 0.2
6,RAYD,≤ 0.2
7,PCVA,≤ 0.2
8,NMTI,≤ 0.2
9,RRKD,≤ 0.2
10,MTQD,≤ 0.2
11,HPIS,≤ 0.2
12,VKPV,≤ 0.2
13,WLMS,≤ 0.2
14,IDPR,≤ 0.2
15,KHKH,≤ 0.2
16,PIPL,≤ 0.2
17,RRHI,≤ 0.2
18,SVYW,≤ 0.2
19,RPKP,≤ 0.2
20,PWMI,≤ 0.2
21,PQPT,≤ 0.2
22,TLWA,≤ 0.2
23,NQCG,≤ 0.2
24,PWDI,≤ 0.2
25,IGLG,≤ 0.2

row,Variant,one-hybrid fitness for binding parS DNA
1,QGKY,≤ 0.2
2,CGYR,≤ 0.2
3,PCML,≤ 0.2
4,PQHA,≤ 0.2
5,LSIC,≤ 0.2
6,WETS,≤ 0.2
7,EPDA,≤ 0.2
8,RTQS,0.951
9,NEDG,≤ 0.2
10,YWPM,≤ 0.2
11,ETFT,≤ 0.2
12,SVGL,≤ 0.2
13,VLCR,≤ 0.2
14,EDRR,0.303
15,AHQF,≤ 0.2
16,GLIL,≤ 0.2
17,MSRH,≤ 0.2
18,RFHF,≤ 0.2
19,DRWL,≤ 0.2
20,SALI,≤ 0.2
21,VVFR,≤ 0.2
22,GNPC,≤ 0.2
23,MGPV,≤ 0.2
24,RDIG,≤ 0.2
25,AFRH,≤ 0.2

row,Variant,one-hybrid fitness for binding parS DNA
1,SQKR,≤ 0.2
2,LRPA,≤ 0.2
3,SRMI,≤ 0.2
4,LSVY,≤ 0.2
5,YSCE,≤ 0.2
6,KMIK,≤ 0.2
7,SRNN,≤ 0.2
8,MTHA,≤ 0.2
9,RECC,≤ 0.2
10,HRDQ,≤ 0.2
11,FDSW,≤ 0.2
12,QRSE,≤ 0.2
13,TFDK,≤ 0.2
14,LIAT,≤ 0.2
15,AGQN,≤ 0.2
16,RFPS,0.551
17,NRWC,≤ 0.2
18,MVSE,≤ 0.2
19,PSPE,≤ 0.2
20,ANNL,≤ 0.2
21,DWEL,≤ 0.2
22,FWPW,≤ 0.2
23,SPQR,≤ 0.2
24,CDPS,≤ 0.2
25,LTTC,≤ 0.2

row,Variant,one-hybrid fitness for binding parS DNA
1,AREC,≤ 0.2
2,SDKW,≤ 0.2
3,KTNI,≤ 0.2
4,CIWR,≤ 0.2
5,TIAL,≤ 0.2
6,VHGG,≤ 0.2
7,SFVS,≤ 0.2
8,NIVV,≤ 0.2
9,EQYP,≤ 0.2
10,VWAF,≤ 0.2
11,AEPI,≤ 0.2
12,RNPS,0.478
13,GPIT,≤ 0.2
14,IYQG,≤ 0.2
15,GTQR,≤ 0.2
16,YICG,≤ 0.2
17,LTYL,≤ 0.2
18,LNVP,≤ 0.2
19,SSAV,≤ 0.2
20,DVRV,≤ 0.2
21,RNRC,0.893
22,WTRC,≤ 0.2
23,WNKT,≤ 0.2
24,DKVS,≤ 0.2
25,CRVG,≤ 0.2

row,Variant,one-hybrid fitness for binding parS DNA
1,KRCW,≤ 0.2
2,THDY,≤ 0.2
3,RREI,≤ 0.2
4,YFSY,≤ 0.2
5,QVTD,≤ 0.2
6,SFEW,≤ 0.2
7,DNMC,≤ 0.2
8,ANES,≤ 0.2
9,HQSD,0.269
10,NEYG,≤ 0.2
11,VFNT,≤ 0.2
12,NSLC,≤ 0.2
13,SRGT,≤ 0.2
14,RGNA,0.394
15,RWVN,≤ 0.2
16,RCPW,≤ 0.2
17,MRCF,≤ 0.2
18,ASAE,≤ 0.2
19,CWVT,≤ 0.2
20,ARGQ,≤ 0.2
